Test results from PubChem BioAssay AID1508623 (National Center for Advancing Translational Sciences (NCATS), 2021).
Among all 48,000 compounds or so, about 450 (0.94%) were called active. Roughly 19% stayed inconclusive and do not appear here. Calls come from the whole dose curve; as a rule, active = well fitted inhibition curve with a large enough effect; inconclusive = small, poorly fitted or top-dose-only effect; inactive = no such curve, though single readings can be large or run the other way. Some of the results follow.

Assay: Primary qHTS for Identification of Small Molecule Inhibitors of Huntingtin Promoter Activity; note: nearly all actives have a fitted effect of over 50% in size
Conditions: HEK293 HTT promoter firefly luciferase reporter (activity 0% = vehicle and -100% = no light), 24 h; series mostly up to 57.5 µM; activity change, negative = inhibition: at the top concentration
In short: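 HEK293 luciferase promoter-reporter cells (2,500/well) plated 24 h, then compounds added at up to 57.5 uM final for 24 h at 37 °C. Firefly luminescence by Dual-Glo, normalized to vehicle (0%) and zero RLU (-100%).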

Activity change, negative = inhibition, inactive:
N#Cc1c(C(F)(F)F)cc(-c2ccc(F)cc2)nc1SCC(=O)Nc1ccccc1 -13.8%
Cc1ccccc1NC(=O)CSc1nc2ccccc2c2nc(CCn3cncc3C)nn12 11.5%
Cc1ccc(CNC(=O)C(C)n2nc(C)n3c(cc4sccc43)c2=O)cc1 (stereo not drawn) 6.63%
O=C(CCS(=O)(=O)c1ccc(Br)cc1)Nc1ccc(F)cc1F -4.69%
Cc1ccc(-c2nc3ncccn3c2Nc2ccc3c(c2)OCCO3)cc1 6.02%
CCc1ccc(CNc2ccc3c(c2)ncn3C(C)(C)C)cc1 40%
COc1cccc2c1cc1c(=O)n(CC(=O)N3CCN(c4ccccc4)CC3)nc(C)n12 -0.738%
O=C1CC(c2nc(-c3ccccc3)no2)CN1c1ccccc1 (stereo not drawn) 0%
CCc1nc2ccc(C(=O)NCc3cc(OC)ccc3OC)cc2nc1CC -5.42%
Cc1cccc2sc(N(CCN(C)C)C(=O)c3ccc4c(c3)OCCO4)nc12 -25.1%
COc1ccc(Cn2c(=O)n(Cc3ccco3)c(=O)c3oc4ccccc4c32)cc1 -0.963%
Cc1cc(OC(C)C(=O)Nc2cccc(-c3nc4ccccc4o3)c2)cc(C)c1Cl (stereo not drawn) 29.1%
CC(=O)N1CCc2cc(S(=O)(=O)CCC(=O)Nc3ccc(C)cc3Br)ccc21 -21.4%
COc1ccc(-c2nc(CS(=O)(=O)CC(=O)NCc3ccccc3Br)c(C)o2)cc1 -15.1%
Cc1ccc(CNC(=O)CCCn2c(=O)c3ccccc3n(CC(=O)Nc3ccc(C)cc3)c2=O)cc1 -1%
CCC(C(=O)Nc1ccc(C)c(C)c1)n1c(=O)c(C(F)(F)F)nc2ccccc21 (stereo not drawn) -5.36%
CCOC(=O)c1c(NC(=O)COc2ccc(Cl)cc2C)sc2c1CCCCC2 2.35%
Cc1ccc(CNC(=O)CS(=O)(=O)c2cccc3nsnc23)cc1 1.73%
COc1cccc(NC(=O)Cn2c(=O)n(CCC(=O)NCCc3ccc(Cl)cc3)c(=O)c3ccccc32)c1 -13.1%
COc1ccc(CCNC(=O)Cc2c(C)c3cc4c(C(C)(C)C)coc4c(C)c3oc2=O)cc1 -9.2%
COc1cc(-c2noc(-c3ccc(NCC4CCCO4)c([N+](=O)[O-])c3)n2)cc(OC)c1OC (stereo not drawn) -16%
Cc1ccc(C)c(Nc2cc(C(=O)NC3CCCC3)c3ccccc3n2)c1 7.46%
COc1cc(NC(=O)CSc2nc3ncccc3o2)cc(OC)c1 -5.99%
Cl/C(=C\n1cncn1)c1ccc(Cl)cc1Cl 4.49%
COc1cc(NC(=O)CN2CCN(c3ccc(F)cc3)CC2)cc(OC)c1 -17.7%
Cc1nn(CC(=O)NC2CCC(C)CC2)c(=O)c2c1sc1ccccc12 (stereo not drawn) -1.83%
CCn1cc2nc(SCC(=O)Nc3cc(OC)cc(OC)c3)n(Cc3ccc(Cl)cc3)c(=O)c2n1 -22.8%
Cc1ccc2oc(-c3ccc(NC(=O)CCC(=O)O)cc3)nc2c1 18%
Cc1ccc(NC(=O)CCc2c(C)nc3c(-c4ccc(F)cc4)c(C)nn3c2C)cc1F -8.86%
Cc1cc(C)c(Nc2ncnc3c2cnn3C)c(C)c1 -25.3%
O=C(/C=C/c1ccccc1Cl)N1CCC(c2nc3ccccc3o2)CC1 -20%
CCOc1ccc(NC(=O)c2sc3nc4n(c(=O)c3c2C)CCC4)cc1 4.75%
COC(=O)N1CCCc2cc(S(=O)(=O)NCc3ccccc3)ccc21 -19.1%
Cc1cccc(C)c1NC(=O)c1ccc2c(c1)nnn2C1CCCC1 -4.8%
CCOc1cc(-c2ccc(OC(=O)c3ccccc3Cl)c(OC)c2)cc(=O)c2c(C)oc(C)c12 -5.96%
COc1ccc(-c2nn3c(=O)cc(CN4CCN(C(=O)/C=C/c5ccccc5)CC4)nc3s2)cc1 -15.3%
COc1ccc(C2CC(=O)Nc3c2c(=O)[nH]c2nc4ccccc4n32)cc1 (stereo not drawn) -14.8%
Cc1cc(C)cc(NC(=O)CSc2nc3c(c(=O)[nH]2)CN(Cc2ccc(F)cc2)CC3)c1 -31.8%
CCn1cc(C(=O)Nc2cccc(Cl)c2)c2cc(OC)c(OC)cc2c1=O -19.7%
Cc1ccccc1COC(=O)c1nn(-c2ccccc2)nc1N 29.8%
COc1ccccc1N1CCN(C(=O)Cn2c(=O)n3nc(-c4cccc(F)c4)nc3c3ccccc32)CC1 10.7%
CCNC(=O)c1ccc(NC(=O)N2CCCCc3ccccc32)cc1 -11.3%
CCCCN(CC)CCNC(=O)C1CCN(S(=O)(=O)c2cccc3nsnc23)CC1 1.54%
CCc1nn(CC(=O)N2CCN(c3ccc(OC)cc3)CC2)c(=O)c2cc3sccc3n12 -12.5%
CC[C@@]1(c2ccccc2)NC(=O)N(C)C1=O -2.65%
CC(CCc1ccccc1)NC(=O)Cn1ncc2c3ccccc3n(Cc3ccccc3F)c2c1=O (stereo not drawn) 15.4%
CCC(=O)C1=C(c2ccc(F)cc2)N(C(=O)CC)n2c(nnc2-c2ccc(OC)cc2)S1 -5.78%
O=C(CSc1nccn1-c1cccc(Cl)c1)Nc1ccc2c(c1)OCO2 -18.2%
COc1ccc(-c2cnc(C)o2)cc1S(=O)(=O)Nc1ccc(NC(C)=O)cc1 -5.7%
O=C(CCn1c(=O)c2cccn2c2cccnc21)N1CCN(c2ccccc2)CC1 -1.01%
Cn1c(=O)oc2cc(S(=O)(=O)CCC(=O)N3CCN(c4ccccc4F)CC3)ccc21 -14% [at 11.5 µM]
CCn1c(SCC(=O)Nc2ccccc2C(=O)OC)nc2ccsc2c1=O -7.46%
Cc1ccc(-c2cc(C(=O)Oc3ccc(C#N)cc3)no2)cc1 31.9%
CCC(=O)NNc1ncnc2c1cnn2-c1ccc(C)c(Cl)c1 -30.7%
O=C(CSc1nc(=O)[nH]c2c1CCC2)NCc1ccccc1Cl -4.17%
CCN(Cc1ccccc1)C(=O)Cn1c(=O)n(-c2ccccc2)c(=O)c2c1c1cc(C)ccc1n2C -15.1%
Cc1nc2ccccc2c(=O)n1-c1ccc(NC(=O)c2ccccc2[N+](=O)[O-])cc1 -1.02%
CCc1ccc(CSc2nc(-c3ccccc3F)nc3c2Cc2c(CO)cnc(C)c2O3)cc1 -7.82%
COc1ccc(OC(=O)c2nc(SCc3ccccc3F)ncc2Cl)cc1 -2.61%
Cc1ccc(NC(=O)Cn2c(=O)n(Cc3ccco3)c(=O)c3oc4ccccc4c32)cc1C -1.94%
CCC(C)NC(=O)c1nn(-c2ccc(C)cc2)nc1CO (stereo not drawn) -2.32%
Cc1cccc(CN2C(=O)c3ccccc3Sc3ccc(C(=O)NC4CCCCC4)cc32)c1 -9.06%
Cc1cccc(CNC(=O)C2CCC(CNS(=O)(=O)c3ccc4c(c3)CCCC(=O)N4)CC2)c1 (stereo not drawn) -14.2%
